Results from PubChem BioAssay AID1345082 (National Center for Advancing Translational Sciences (NCATS), 2018).
The campaign covered roughly 94,000 compounds. About 4,000 (4.3%) were called active. The inconclusive results got no clear call from the source; some entries with a clear call stand among them for comparison. Calls come from the whole dose curve; as a rule, active = well fitted inhibition curve with a large enough effect; inconclusive = small, poorly fitted or top-dose-only effect; inactive = no such curve, though single readings can be large or run the other way. Potencies beside an inconclusive call are fits to weak or partial responses and may not hold up.

Test: Cytotoxic Profiling in NIH 3T3 Cell Line of Diverse Libraries Using Quantitative High-Throughput Screening; note: nearly all actives have a fitted effect of over 55% in size
Details: NIH 3T3 viability, CellTiter-Glo ATP luminescence, 48-72 h; series mostly up to 96.7 µM
Outline: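 Viability of NIH 3T3 cells after 48 or 72 hr compound treatment at 37 °C was assessed by CellTiter-Glo, with luminescence imaged following a 10 min room-temperature step.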
Potency is the fitted concentration of half-maximal effect; tags give direction and shape of the fitted curve.

Row | SMILES | Potency
1 | COc1ccccc1C(=O)NC1CCN(c2cc(-c3ccc(Cl)cc3)[nH]n2)CC1 | inconclusive: 12.6 µM [inhibitor, full curve, poor fit]
2 | O=C(Nc1ccccc1)N1CCn2c(nnc2C2CC2)C1 | inactive
3 | COc1ccc(OC)c(-c2nc3ccc(-c4ccc(OC)c(OC)c4OC)cc3o2)c1 | inconclusive: 44.7 µM [inhibitor, partial curve, poor fit]
4 | COc1ccc(CCC(=O)N2CCC(Cc3n[nH]c(C)n3)CC2)cc1 | inactive
5 | O=C(Cc1ccc(F)cc1)N1CCCC2(CNc3ncccc3[S+](=O)([O-])N2)C1 (stereo unspecified) | inactive
6 | COCc1noc(CN2CCN(C)C3(CCC(=O)N(CC4CC4)CC3)C2)n1 (stereo unspecified) | inactive
7 | c1cc(Cn2ccc3c(N4CCOCC4)nc(-c4cncnc4)cc32)ccn1 | active: 10 µM
8 | COC(=O)CNC(=O)c1nc(-c2ccc(Cl)nc2)c2cnccn12 | inconclusive: 89.1 µM [inhibitor, partial curve, poor fit]
9 | COC(=O)C1=C(C)N=C2SC=C(CC(=O)N3CCCCC3C)N2C1c1ccc(OC)cc1 (stereo unspecified) | inconclusive: 44.7 µM [inhibitor, partial curve, poor fit]
10 | CC(C)c1noc(CN(C)C(=O)c2csc3nc(-c4ccc(F)cc4)cn23)n1 | inconclusive: 39.8 µM [inhibitor, partial curve]
11 | CC1(C)C(=O)N(Cc2ccccc2)[C@H]2CN(Cc3cccc(C(=O)O)c3)C[C@H]2[S+]1(=O)[O-] | inconclusive: 70.8 µM [inhibitor, single point]
12 | CC1(C)[C@H]2CC[C@@H](CNC(=O)c3ccccc3F)[C@@H]1C2 | inconclusive: 79.4 µM [inhibitor, partial curve, poor fit]
13 | O=C1Nc2ccccc2CN(C/C=C/c2ccccc2)C12CCNC2 (stereo unspecified) | active: 25.1 µM
14 | CNc1nccc(N2CCC(CC(=O)N3CCN(c4ccccc4C)CC3)CC2)n1 | active: 44.7 µM
15 | COc1cccc(N2C(=O)NC(=NC3CCCC3)C23CCN(CC2CCCCC2)C3)c1 (stereo unspecified) | active: 31.6 µM
16 | N#Cc1cccc(C(=O)NCc2nnc3ccc(-c4ccc(F)cc4)nn23)c1 | inconclusive: 70.8 µM [inhibitor, single point]
17 | N#Cc1ccc(C(=O)N2CCCN(C(=O)c3cccnc3)CCC(=O)NCC2)cc1 | inactive
18 | COCCC1CN(Cc2nc(-c3cccc(C(F)(F)F)c3)oc2C)CCO1 (stereo unspecified) | inconclusive: 50.1 µM [inhibitor, partial curve, poor fit]
19 | Cc1ccc(Nc2ccnc(N3CCCC(C(=O)NCc4ccc(F)cc4)C3)n2)cc1 (stereo unspecified) | inconclusive: 14.1 µM [inhibitor, full curve, poor fit]
20 | COc1ccc(CN2CC[C@H](c3nnc(-c4ccco4)o3)C2)cc1 | inactive
21 | O=C(CCC1CCN(c2cc(NC3CC3)ncn2)CC1)NCc1cc(F)cc(F)c1 | inconclusive: 50.1 µM [inhibitor, partial curve, poor fit]

Row | SMILES | Potency
22 | CCCc1noc(-c2ccn3c(CNC(=O)Cc4ccc(Cl)cc4)nnc3c2)n1 | inactive
23 | CC(C)CCCC1CN(C(=O)c2c(O)cccc2O)CCO1 (stereo unspecified) | inconclusive: 56.2 µM [inhibitor, partial curve, poor fit]
24 | CCOC(=O)[C@H]1C[C@]2(CCCCN(CCOC(C)=O)C2=O)N(C(=O)C2CC2)[C@H]1c1ccccc1 | inconclusive: 79.4 µM [inhibitor, partial curve, poor fit]
25 | CC(C)Oc1cccc2c1c(NC(=O)c1ccn(C)n1)nn2Cc1ccccc1 | inconclusive: 44.7 µM [inhibitor, partial curve, poor fit]
26 | O=C(c1ccsc1)N1CCC2(CC1)CC(N1CCOCC1)CCO2 (stereo unspecified) | inactive
27 | FC(F)(F)Oc1ccc(-c2cnc([C@@H]3COCCN3Cc3ccncc3)[nH]2)cc1 | inconclusive: 63.1 µM [inhibitor, partial curve, poor fit]
28 | CCc1cccc(NC(=O)Cn2c(-c3cnccn3)nc(C)c(CCO)c2=O)c1 | inactive
29 | COCCN1CC(CO)C2(CCN(Cc3ccc(Cl)c(F)c3)CC2)C1 (stereo unspecified) | inconclusive: 50.1 µM [inhibitor, partial curve, poor fit]
30 | COc1ccc(CN2Cc3[nH]cnc3C[C@H]2c2nc(-c3ccncc3)no2)cc1 | inconclusive: 89.1 µM [inhibitor, partial curve]
31 | O=C(NC[C@H]1Cn2c(-c3ccc4c(c3)OCCO4)cnc2CO1)C1CC1 | inconclusive: 63.1 µM [inhibitor, partial curve, poor fit]
32 | Cc1cc(C(=O)NCC23CCCC=C2N(C)C(=O)CC3)n(C)n1 (stereo unspecified) | inactive
33 | CCn1ncc(N2CCCC(CC(=O)NCc3ccc(C)cc3)C2)cc1=O (stereo unspecified) | inactive
34 | Cn1ccnc1CNC(=O)C[C@@H]1C[C@H]2O[C@H](CNCc3cnccc3C(F)(F)F)[C@@H](O)[C@H]2O1 | inactive
35 | CN(C)c1cccc(-c2nccc3c(=O)cc(N(C)C4CCOCC4)oc23)c1 | inconclusive: 56.2 µM [inhibitor, partial curve, poor fit]
36 | O=C(NC1CCN(c2ccnc3ccnn23)CC1)c1ccncc1 | inconclusive: 63.1 µM [inhibitor, partial curve, poor fit]
37 | CC(C)NC(=O)N1CCC[C@@H](O)[C@H](NC(=O)c2ccc(OCCN3CCCC3)cc2)C1 | inactive
38 | Cc1ccc(OCc2nc(C3CCCN3C(=O)Nc3ccc(C)c(F)c3)no2)cc1 (stereo unspecified) | inconclusive: 44.7 µM [inhibitor, partial curve]
39 | O=C(NCCCc1ccccc1)C1CCc2nnc(C3CCN([S+](=O)([O-])c4ccccc4Cl)CC3)n21 (stereo unspecified) | inconclusive: 39.8 µM [inhibitor, partial curve]
40 | Cc1ccsc1-c1[nH]nc2ncc(-c3cccc(O)c3)nc12 | inconclusive: 50.1 µM [inhibitor, partial curve, poor fit]
41 | Cn1nc(C(=O)N2CCC3(CC2)N=C(c2ccc(Br)cc2)NO3)c2ccccc21 | inconclusive: 50.1 µM [inhibitor, partial curve, poor fit]
